Values marked as one replicate rest on one cluster of the flow cell; about a third of the high ones do not repeat.
Tested on: ATP
Assay: switch fluorescence ratio, 500 uM ATP over buffer (Cy3 cluster intensity, sum of 5 cycles each) (fold (ratio)); higher = stronger signal-on switching upon ATP binding; sequences stand for … in TCGTCGGCAGCGTCAGATGTGTATAAGAGACAGTTTTTTTTTTTTTTTTTTTTTTTTT…TC
Details: aptamer strand: ATP DNA aptamer (quencher-CACCTGGGGGAGTATTGCGGAGGAAGG + anchor), 100 nM annealed; ATP concentration: 500 uM; one replicate
Outline: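 Exposure to 500 uM ATP lasted 15 min at 22 °C before imaging, and a selection-buffer image was taken beforehand, for Cy3-labelled switching-strand clusters on a modified Illumina MiSeq flow-cell annealed to 100 nM quencher-labelled ATP aptamer. Five buffer/ATP cycles were run with NaOH stripping and re-annealing between them. The fluorescence ratio per cluster is summed target-cycle over summed buffer-cycle Cy3 intensity, averaged per switch-domain sequence. Clusters outside 100-1000 RFU were excluded.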

Row | Sequence | switch fluorescence ratio
1 | TCTTTGGTTC | 1.04
2 | TCTTTGTTCG | 0.994
3 | TCTTTTTAGC | 1.01
4 | TCTTTTTTAT | 0.973
5 | TGAAAAGGCA | 1.03
6 | TGAAACAATA | 1.02
7 | TGAAAGCGGG | 1
8 | TGAAATAT | 0.981
9 | TGAAATATTA | 1.04
10 | TGAACAATAT | 1.03
11 | TGAACAGTTA | 0.985
12 | TGAACATGGA | 1.01
13 | TGAACCAAAA | 1.14
14 | TGAACCCTGA | 1.02
15 | TGAACTACTA | 1.07
16 | TGAACTAGG | 0.943
17 | TGAACTGT | 0.968
18 | TGAAGAGGCG | 0.992
19 | TGAAGATAGG | 0.961
20 | TGAAGATCAT | 0.978
21 | TGAAGCCCCG | 0.998
22 | TGAAGCCGGG | 0.928
23 | TGAAGGTGAT | 1.08
24 | TGAAGTGTTC | 1.04
25 | TGAATATTTA | 0.977
26 | TGAATCAAGT | 1.01

Row | Sequence | switch fluorescence ratio
27 | TGAATGAGCC | 0.997
28 | TGAATGAGCG | 0.949
29 | TGAATGCGTT | 1.01
30 | TGAATGGCTC | 1.01
31 | TGACAACG | 0.957
32 | TGACAAGCGC | 0.981
33 | TGACACATGT | 1.04
34 | TGACACGTAT | 1.15
35 | TGACACTATA | 1.1
36 | TGACAGAACA | 1.09
37 | TGACAGAGAT | 1.03
38 | TGACAGGTA | 0.98
39 | TGACCGTCAG | 0.915
40 | TGACCGTTTG | 1.01
41 | TGACGATCTT | 0.982
42 | TGACGCTAGG | 1.03
43 | TGACGGGAAC | 1.21
44 | TGACGTGTG | 1.02
45 | TGACTACGAG | 1
46 | TGACTAGCTT | 1.02
47 | TGACTATTGC | 1.1
48 | TGACTCCTTC | 1.09
49 | TGACTTCCGG | 0.992
50 | TGACTTCTTA | 0.97
51 | TGACTTGCGC | 0.986
52 | TGAGAAAGAC | 1.1

Row | Sequence | switch fluorescence ratio
53 | TGAGACAAGG | 0.978
54 | TGAGACCCGT | 1.03
55 | TGAGACCGTA | 0.947
56 | TGAGACGTTA | 0.977
57 | TGAGACTGAT | 0.988
58 | TGAGATATAA | 1.03
59 | TGAGATATG | 0.997
60 | TGAGATCTAA | 1
61 | TGAGCAAAGA | 1.04
62 | TGAGCACG | 1.06
63 | TGAGCACTT | 1.3
64 | TGAGCAGTGG | 1.14
65 | TGAGCATA | 1.08
66 | TGAGCATGAT | 1.05
67 | TGAGCCAAAC | 1.05
68 | TGAGCCACCT | 1.07
69 | TGAGCCTCTT | 0.983
70 | TGAGCTGAAG | 1.11
71 | TGAGGAGCTT | 0.965
72 | TGAGGATGGC | 0.994
73 | TGAGGATGTC | 1.05
74 | TGAGGATGTG | 0.996
75 | TGAGGATTCT | 1.01
76 | TGAGGCACTA | 1.12
77 | TGAGGCATGC | 1.27
78 | TGAGGCTAGC | 0.999

Row | Sequence | switch fluorescence ratio
79 | TGAGGCTTGG | 0.946
80 | TGAGGTCTGG | 0.981
81 | TGAGGTCTTT | 0.984
82 | TGAGTCGGGT | 1.01
83 | TGAGTTAATT | 0.982
84 | TGAGTTCAG | 0.969
85 | TGAGTTGAGC | 0.926
86 | TGAGTTTAAA | 0.932
87 | TGAGTTTCGA | 0.979
88 | TGATAACCAG | 0.98
89 | TGATAACCGT | 1.02
90 | TGATAACTTG | 0.992
91 | TGATACAT | 0.981
92 | TGATACATTA | 0.998
93 | TGATACCAGG | 1.44
94 | TGATAGATCC | 1.01
95 | TGATAGCCCG | 1.07
96 | TGATAGGCGC | 0.987
97 | TGATAGTAAA | 0.985
98 | TGATAGTAAT | 1.02
99 | TGATAGTCAT | 1.02
100 | TGATAGTGGT | 0.997
101 | TGATAGTTCA | 1.01

— the supplement of paper PMC10126150
